B1: OR4K15 (parent)
chain: GUUAACGGUCAUAGGCCAUGGAAACUAGGAGCACCAUUUCGCUGCCAGUGAAGAAAUGAACAAAGAAAAUCUGGGCCAGGCAGGCAUCAAAAGAAAUAGUCUUGCGCUCAACCAGAAAGUCUGUAAUCAUUUUAAGGGUA

Read counts are not given, so values of variants with three or more changes are uncertain.

Variants of B1 are the subject of the series. The series is described as follows: self-cleavage, relative activity (ratio to wild type); higher = more cleavage; in vitro, sequencing; the parent is a self-cleaving ribozyme.
For the variant U39C A54G A56C A86G, the self-cleavage was 0.66.

For G41A U72A C105G, the self-cleavage came out at 0.01.

For the variant C42A A63G A95G A126G, the self-cleavage turned out to be 1.28.

Turning to C40U U100C U108C, the self-cleavage was 0.

In the case of U39C A56G A69G A82U, the self-cleavage turned out to be 0.37.

With U39C A82G U122C, the self-cleavage was found to be 0.21.

For the variant C42U U43C A91G U100C, the self-cleavage was 0.68.

On to C40U G79A G83A, for which the self-cleavage was 0.09.

In the case of U43A A69G G106U U124C A125G, the self-cleavage was found to be 0.

For U43C A60G A111G A140G, the self-cleavage was 0.03.

Consider U39C A51G A91G, for which the self-cleavage is 0.77.

Consider U43C A54G A55U A78U U108C A117U A126G, for which the self-cleavage was determined as 0.

In the case of U43A A96U U139A, the self-cleavage was determined as 1.89.

Turning to U43A U87C A135G, the self-cleavage came out at 1.31.

As for C42U A66G U103A U120C, the self-cleavage amounted to 0.55.

As for U39C U70C A134G, the self-cleavage is 0.49.

Turning to G41A A68U A94G U102C, the self-cleavage came to 2.33.

In the case of C40U A90G A118U, the self-cleavage was 0.38.

Regarding U39C A69G A82G, the self-cleavage is 0.64.

As for U43G U122A U130C A140U, the self-cleavage stood at 1.46.

As for C40U U49A U57C, the self-cleavage came to 0.93.

With G44A A55G U102C, the self-cleavage was 2.02.

With U43A A78U U120C, the self-cleavage worked out at 0.21.

Regarding G44A A56U A89U, the self-cleavage was determined as 2.1.

As for U39C G104A A140G, the self-cleavage came out at 0.03.

Take U43A A47U A117G U133C A134G: the self-cleavage stood at 2.

As for U39C A60G U133C, the self-cleavage worked out at 0.83.

Take U43C A51G A69G A116G: the self-cleavage turned out to be 0.39.

On to U39C A52G A91G, for which the self-cleavage came out at 0.92.

For U39C U49A U70C, the self-cleavage came out at 1.33.

Turning to U43C A68G A94U, the self-cleavage turned out to be 2.91.

Regarding C45G A54C A60G, the self-cleavage turned out to be 1.07.

Turning to G44C A59G A86U A118G U130C, the self-cleavage amounted to 1.61.

For the variant U39C A69G C128U U130C, the self-cleavage came to 0.98.

Take U43C A69U A117G: the self-cleavage came to 1.82.

Turning to G41A A59U U87A U100C A140G, the self-cleavage is 1.91.

For the variant U43G U57C C128A, the self-cleavage worked out at 0.89.

With U39C U72C A86U A96G, the self-cleavage was determined as 0.05.

Turning to U43C A54G A60G A89G, the self-cleavage amounted to 0.87.

With U43C A54G U120A, the self-cleavage came out at 2.02.

U43C A66G A96U: the self-cleavage is 1.46.

U43C A51G U132A: the self-cleavage worked out at 1.31.

U43C A66U U139C: the self-cleavage is 1.16.

For the variant U43C A59C A111G A135G, the self-cleavage was determined as 0.01.

In the case of U39C U43C A54G A78G C88A U132C, the self-cleavage stood at 0.19.

As for U43A G115U A117G, the self-cleavage is 0.09.

As to U43G A52G G75U A96U, the self-cleavage was found to be 0.13.

For the variant G41A U87A A96G, the self-cleavage stood at 2.23.

In the case of U43C A67G A96G U108C A111G, the self-cleavage was 0.01.

As for U39C C46U A56G A66G, the self-cleavage was 1.74.

Regarding U39C A66U A116G U122C, the self-cleavage was 0.38.

Turning to U43C A60U A135G, the self-cleavage stood at 1.8.

On to U43C G106U A118G, for which the self-cleavage was 0.

For the variant U43C A89G A92G A98G U127C, the self-cleavage stood at 0.05.

Take U43C U103C U124C A140C: the self-cleavage is 0.68.

Regarding U39C A67G G119A, the self-cleavage is 2.36.

In the case of U39C A51U A117G, the self-cleavage is 1.92.

With U43C G48A U108C, the self-cleavage amounted to 0.01.

In the case of U43A A52G A78G U97A U100C U122C, the self-cleavage stood at 0.27.

In the case of U43G U70C A90G A111G, the self-cleavage was 0.08.

As to U43A A64G A68G U139A, the self-cleavage was 1.25.

As to U39C A59G C85U U124C U139C, the self-cleavage is 0.09.

For U39C A66G U122C, the self-cleavage is 1.29.

Turning to U43A A56G A62G G138A, the self-cleavage turned out to be 1.05.

Regarding U43G U49C U103C U131C, the self-cleavage is 0.77.

For G41A A82G A91G U122A, the self-cleavage was found to be 0.07.

As to U39C G41U U97C U122C, the self-cleavage came out at 2.11.

C40A A63G U122C: the self-cleavage was 1.81.

For U39C U72A U127A, the self-cleavage amounted to 0.36.

With U43C A59U U130A, the self-cleavage stood at 1.41.

For the variant U43A A54U U72A, the self-cleavage was 0.11.

As for U43C A59G U70C U87C A134U, the self-cleavage turned out to be 0.68.

For the variant U43C G48U A67G A96G, the self-cleavage was found to be 1.6.

Regarding U39C A47U A60G A68U C101A, the self-cleavage came out at 0.06.

G41U U49C A59G A90G A114U: the self-cleavage was found to be 0.03.

With U43C A82G A135G, the self-cleavage was 0.43.

As to U43C A90G A140G, the self-cleavage was 1.12.

Regarding C42A A64G A86U A116G A126G, the self-cleavage was 0.25.

As for U43C A59G A116G, the self-cleavage is 0.33.

Take U39C A62G A94G: the self-cleavage came out at 1.46.

As to U43A A68G U72C U102C A134G, the self-cleavage is 0.25.

For the variant U43C A51G U87A A117G, the self-cleavage worked out at 2.

Take U43A A68G A82G A94G A129G U132G: the self-cleavage was 0.21.

Regarding U39G A47G A67G U97C, the self-cleavage came out at 0.63.

The values above are taken from the RNAGym collection of RNA variant scans (doi:10.7554/elife.90254).
